{"source": "the supplement of paper PMC8728848", "binders": {"B1": {"name": "GNA (Galanthus nivalis), P30617 (protein)", "chain": "MAKASLLILAAIFLGVITPSCLSDNILYSGETLSTGEFLNYGSFVFIMQEDCNLVLYDVDKPIWATNTGGLSRSCFLSMQTDGNLVVYNPSNKPIWASNTGGQNGNYVCILQKDRNVVIYGTDRWATGTHTGLVGIPASPPSEKYPTAGKIKLVTAK"}}, "test_in_all_cases": "glycan array binding signal (z-score within array); higher = stronger binding", "conditions_in_all_cases": "glycan notation: IUPAC condensed, linker removed", "key": {"[1]": {"target": "Fuc(a1-2)Gal(b1-4)GlcNAc(b1-2)[Fuc(a1-2)Gal(b1-4)GlcNAc(b1-4)]Man(a1-3)[Fuc(a1-2)Gal(b1-4)GlcNAc(b1-2)Man(a1-6)]Man(b1-4)GlcNAc(b1-4)GlcNAc", "outline": "(§1)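 Negative Z-scores can be read as non-binding. The Z-score is calculated within each array and then averaged across arrays of one protein sequence at different concentrations or buffers and across linkers. Arrays, 3228 in all, were curated from the Consortium for Functional Glycomics database and kept only where the protein sequence was available.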"}, "[2]": {"target": "Fuc(a1-2)Gal(b1-4)GlcNAc(b1-3)Gal(b1-4)GlcNAc", "outline": "as §1"}, "[3]": {"target": "Fuc(a1-2)Gal(b1-4)GlcNAc(b1-3)Gal(b1-4)GlcNAc(b1-2)Man(a1-3)[Fuc(a1-2)Gal(b1-4)GlcNAc(b1-3)Gal(b1-4)GlcNAc(b1-2)Man(a1-6)]Man(b1-4)GlcNAc(b1-4)GlcNAc", "outline": "as §1"}, "[4]": {"target": "Fuc(a1-2)Gal(b1-4)GlcNAc(b1-3)Gal(b1-4)GlcNAc(b1-3)Gal(b1-4)GlcNAc", "outline": "as §1"}, "[5]": {"target": "Fuc(a1-2)Gal(b1-4)GlcNAc(b1-3)GalNAc", "outline": "as §1"}, "[6]": {"target": "Fuc(a1-2)Gal(b1-4)GlcNAc(b1-3)[Fuc(a1-2)Gal(b1-4)GlcNAc(b1-6)]GalNAc", "outline": "as §1"}, "[7]": {"target": "Fuc(a1-2)Gal(b1-4)GlcNAc(b1-3)[Fuc(a1-3)[Gal(b1-4)]GlcNAc(b1-6)]Gal(b1-4)Glc", "outline": "as §1"}, "[8]": {"target": "Fuc(a1-2)Gal(b1-4)GlcNAc(b1-6)GalNAc", "outline": "as §1"}, "[9]": {"target": "Fuc(a1-2)Gal(b1-4)GlcNAc6S", "outline": "as §1"}, "[10]": {"target": "Fuc(a1-2)Gal(b1-4)[Fuc(a1-3)]GlcNAc", "outline": "as §1"}, "[11]": {"target": "Fuc(a1-2)Gal(b1-4)[Fuc(a1-3)]GlcNAc(b1-2)Man(a1-3)[Fuc(a1-2)Gal(b1-4)[Fuc(a1-3)]GlcNAc(b1-2)Man(a1-6)]Man(b1-4)GlcNAc(b1-4)GlcNAc", "outline": "as §1"}, "[12]": {"target": "Fuc(a1-2)Gal(b1-4)[Fuc(a1-3)]GlcNAc(b1-2)Man(a1-3)[Fuc(a1-2)Gal(b1-4)[Fuc(a1-3)]GlcNAc(b1-2)Man(a1-6)]Man(b1-4)GlcNAc(b1-4)[Fuc(a1-6)]GlcNAc", "outline": "as §1"}, "[13]": {"target": "Fuc(a1-2)Gal(b1-4)[Fuc(a1-3)]GlcNAc(b1-2)[Fuc(a1-2)Gal(b1-4)[Fuc(a1-3)]GlcNAc(b1-4)]Man(a1-3)[Fuc(a1-2)Gal(b1-4)[Fuc(a1-3)]GlcNAc(b1-2)Man(a1-6)]Man(b1-4)GlcNAc(b1-4)GlcNAc", "outline": "as §1"}, "[14]": {"target": "Fuc(a1-2)Gal(b1-4)[Fuc(a1-3)]GlcNAc(b1-3)Gal(b1-4)[Fuc(a1-3)]GlcNAc", "outline": "as §1"}, "[15]": {"target": "Fuc(a1-2)Gal(b1-4)[Fuc(a1-3)]GlcNAc(b1-3)Gal(b1-4)[Fuc(a1-3)]GlcNAc(b1-3)Gal(b1-4)[Fuc(a1-3)]GlcNAc", "outline": "as §1"}, "[16]": {"target": "Fuc(a1-2)Gal(b1-4)[Fuc(a1-3)]GlcNAc(b1-3)GalNAc", "outline": "as §1"}, "[17]": {"target": "Fuc(a1-2)Gal(b1-4)[Fuc(a1-3)]GlcNAc(b1-3)[Neu5Ac(a2-6)Gal(b1-4)GlcNAc(b1-6)]Gal(b1-4)Glc", "outline": "as §1"}, "[18]": {"target": "Fuc(a1-2)Gal3S(b1-4)GlcNAc", "outline": "as §1"}, "[19]": {"target": "Fuc(a1-2)Gal6S(b1-3)GlcNAc", "outline": "as §1"}, "[20]": {"target": "Fuc(a1-2)Gal6S(b1-3)GlcNAc6S", "outline": "as §1"}, "[21]": {"target": "Fuc(a1-2)Gal6S(b1-4)Glc", "outline": "as §1"}, "[22]": {"target": "Fuc(a1-2)Gal6S(b1-4)Glc6S", "outline": "as §1"}, "[23]": {"target": "Fuc(a1-2)Gal6S(b1-4)GlcNAc", "outline": "as §1"}, "[24]": {"target": "Fuc(a1-2)GlcNAc", "outline": "as §1"}, "[25]": {"target": "Fuc(a1-2)[Gal(a1-3)]Gal", "outline": "as §1"}, "[26]": {"target": "Fuc(a1-2)[Gal(a1-3)]Gal(b1-3)GalNAc", "outline": "as §1"}, "[27]": {"target": "Fuc(a1-2)[Gal(a1-3)]Gal(b1-3)GalNAc(b1-3)Gal(a1-4)Gal(b1-4)Glc", "outline": "as §1"}, "[28]": {"target": "Fuc(a1-2)[Gal(a1-3)]Gal(b1-3)GlcNAc", "outline": "as §1"}, "[29]": {"target": "Fuc(a1-2)[Gal(a1-3)]Gal(b1-3)GlcNAc(b1-2)Man(a1-3)[Fuc(a1-2)[Gal(a1-3)]Gal(b1-3)GlcNAc(b1-2)Man(a1-6)]Man(b1-4)GlcNAc(b1-4)GlcNAc", "outline": "as §1"}, "[30]": {"target": "Fuc(a1-2)[Gal(a1-3)]Gal(b1-3)GlcNAc(b1-2)Man(a1-3)[Fuc(a1-2)[Gal(a1-3)]Gal(b1-3)GlcNAc(b1-2)Man(a1-6)]Man(b1-4)GlcNAc(b1-4)[Fuc(a1-6)]GlcNAc", "outline": "as §1"}, "[31]": {"target": "Fuc(a1-2)[Gal(a1-3)]Gal(b1-3)GlcNAc(b1-3)GalNAc", "outline": "as §1"}, "[32]": {"target": "Fuc(a1-2)[Gal(a1-3)]Gal(b1-3)GlcNAc(b1-6)GalNAc", "outline": "as §1"}, "[33]": {"target": "Fuc(a1-2)[Gal(a1-3)]Gal(b1-4)Glc", "outline": "as §1"}, "[34]": {"target": "Fuc(a1-2)[Gal(a1-3)]Gal(b1-4)GlcNAc", "outline": "as §1"}, "[35]": {"target": "Fuc(a1-2)[Gal(a1-3)]Gal(b1-4)GlcNAc(b1-2)Man", "outline": "as §1"}, "[36]": {"target": "Fuc(a1-2)[Gal(a1-3)]Gal(b1-4)GlcNAc(b1-2)Man(a1-3)[Fuc(a1-2)[Gal(a1-3)]Gal(b1-4)GlcNAc(b1-2)Man(a1-6)]Man(b1-4)GlcNAc(b1-4)GlcNAc", "outline": "as §1"}, "[37]": {"target": "Fuc(a1-2)[Gal(a1-3)]Gal(b1-4)GlcNAc(b1-2)Man(a1-3)[Fuc(a1-2)[Gal(a1-3)]Gal(b1-4)GlcNAc(b1-2)Man(a1-6)]Man(b1-4)GlcNAc(b1-4)[Fuc(a1-6)]GlcNAc", "outline": "as §1"}, "[38]": {"target": "Fuc(a1-2)[Gal(a1-3)]Gal(b1-4)GlcNAc(b1-3)GalNAc", "outline": "as §1"}, "[39]": {"target": "Fuc(a1-2)[Gal(a1-3)]Gal(b1-4)GlcNAc(b1-3)[Fuc(a1-2)[Gal(a1-3)]Gal(b1-4)GlcNAc(b1-6)]GalNAc", "outline": "as §1"}, "[40]": {"target": "Fuc(a1-2)[Gal(a1-3)]Gal(b1-4)GlcNAc(b1-6)GalNAc", "outline": "as §1"}, "[41]": {"target": "Fuc(a1-2)[Gal(a1-3)]Gal(b1-4)[Fuc(a1-3)]Glc", "outline": "as §1"}, "[42]": {"target": "Fuc(a1-2)[Gal(a1-3)]Gal(b1-4)[Fuc(a1-3)]GlcNAc", "outline": "as §1"}, "[43]": {"target": "Fuc(a1-2)[Gal(a1-3)]Gal(b1-4)[Fuc(a1-3)]GlcNAc(b1-3)GalNAc", "outline": "as §1"}, "[44]": {"target": "Fuc(a1-2)[Gal(a1-4)]Gal(b1-4)GlcNAc", "outline": "as §1"}, "[45]": {"target": "Fuc(a1-2)[GalNAc(a1-3)]Gal", "outline": "as §1"}}, "note": "The list shows a part of the results.", "data": [{"binder": "B1", "values": [{"measurement": "glycan array binding signal (z-score)", "setting": "[1]", "result": 0.026}, {"measurement": "glycan array binding signal (z-score)", "setting": "[2]", "result": -0.272}, {"measurement": "glycan array binding signal (z-score)", "setting": "[3]", "result": -0.078}, {"measurement": "glycan array binding signal (z-score)", "setting": "[4]", "result": -0.192}, {"measurement": "glycan array binding signal (z-score)", "setting": "[5]", "result": -0.164}, {"measurement": "glycan array binding signal (z-score)", "setting": "[6]", "result": -0.174}, {"measurement": "glycan array binding signal (z-score)", "setting": "[7]", "result": -0.153}, {"measurement": "glycan array binding signal (z-score)", "setting": "[8]", "result": -0.135}, {"measurement": "glycan array binding signal (z-score)", "setting": "[9]", "result": -0.096}, {"measurement": "glycan array binding signal (z-score)", "setting": "[10]", "result": -0.158}, {"measurement": "glycan array binding signal (z-score)", "setting": "[11]", "result": 0.014}, {"measurement": "glycan array binding signal (z-score)", "setting": "[12]", "result": -0.094}, {"measurement": "glycan array binding signal (z-score)", "setting": "[13]", "result": -0.14}, {"measurement": "glycan array binding signal (z-score)", "setting": "[14]", "result": -0.272}, {"measurement": "glycan array binding signal (z-score)", "setting": "[15]", "result": -0.211}, {"measurement": "glycan array binding signal (z-score)", "setting": "[16]", "result": -0.131}, {"measurement": "glycan array binding signal (z-score)", "setting": "[17]", "result": -0.174}, {"measurement": "glycan array binding signal (z-score)", "setting": "[18]", "result": -0.165}, {"measurement": "glycan array binding signal (z-score)", "setting": "[19]", "result": -0.179}, {"measurement": "glycan array binding signal (z-score)", "setting": "[20]", "result": -0.137}, {"measurement": "glycan array binding signal (z-score)", "setting": "[21]", "result": -0.015}, {"measurement": "glycan array binding signal (z-score)", "setting": "[22]", "result": -0.007}, {"measurement": "glycan array binding signal (z-score)", "setting": "[23]", "result": 0.454}, {"measurement": "glycan array binding signal (z-score)", "setting": "[24]", "result": -0.201}, {"measurement": "glycan array binding signal (z-score)", "setting": "[25]", "result": -0.188}, {"measurement": "glycan array binding signal (z-score)", "setting": "[26]", "result": -0.151}, {"measurement": "glycan array binding signal (z-score)", "setting": "[27]", "result": -0.161}, {"measurement": "glycan array binding signal (z-score)", "setting": "[28]", "result": -0.175}, {"measurement": "glycan array binding signal (z-score)", "setting": "[29]", "result": -0.019}, {"measurement": "glycan array binding signal (z-score)", "setting": "[30]", "result": 0.539}, {"measurement": "glycan array binding signal (z-score)", "setting": "[31]", "result": -0.163}, {"measurement": "glycan array binding signal (z-score)", "setting": "[32]", "result": -0.169}, {"measurement": "glycan array binding signal (z-score)", "setting": "[33]", "result": -0.161}, {"measurement": "glycan array binding signal (z-score)", "setting": "[34]", "result": -0.241}, {"measurement": "glycan array binding signal (z-score)", "setting": "[35]", "result": -0.148}, {"measurement": "glycan array binding signal (z-score)", "setting": "[36]", "result": -0.178}, {"measurement": "glycan array binding signal (z-score)", "setting": "[37]", "result": 0.168}, {"measurement": "glycan array binding signal (z-score)", "setting": "[38]", "result": -0.153}, {"measurement": "glycan array binding signal (z-score)", "setting": "[39]", "result": -0.171}, {"measurement": "glycan array binding signal (z-score)", "setting": "[40]", "result": -0.167}, {"measurement": "glycan array binding signal (z-score)", "setting": "[41]", "result": -0.16}, {"measurement": "glycan array binding signal (z-score)", "setting": "[42]", "result": -0.165}, {"measurement": "glycan array binding signal (z-score)", "setting": "[43]", "result": -0.127}, {"measurement": "glycan array binding signal (z-score)", "setting": "[44]", "result": -0.231}, {"measurement": "glycan array binding signal (z-score)", "setting": "[45]", "result": -0.231}]}]}
